# Assay results as given in PubChem BioAssay AID463173 (ICCB-Longwood Screening Facility, Harvard Medical School, 2010).
# Hit rate of the full screen: of about 52,000 compounds, about 1,700 (3.3%) were called active. Rule as the data show it: active = survival mostly below about 52% (no sharp cut-off); inactive = mostly above about 56%. Some of the results follow.
# Tested on: Wild type
# Assay: growth inhibition of S. aureus wild type versus tarO mutant, primary screen, teichoic acid synthesis inhibitors, RN4220, OD600 (AID 463173)
# Conditions: S. aureus RN4220 wild type/DeltatarO growth, OD600, 18 h, stronger effect = lower value, screened at 18.75 µg/mL (by protocol)
row,SMILES,survival
1,O=C(NC1CCCC1)C(c1ccccc1)N(C(=O)c1ccco1)C1CCCC1 (stereo not drawn),inactive: 88%
2,O=C(NCCc1ccccc1)C(=O)NCC(c1cccnc1)N1CCN(c2ccc(F)cc2)CC1 (stereo not drawn),inactive: 109%
3,CCC(=O)N1CCc2cc(CNC(=O)Nc3ccc(OC)cc3OC)ccc21,inactive: 70%
4,CCC(C)N1CCN(C2CCCCC2)CC1 (stereo not drawn),inactive: 108%
5,COc1ccccc1-c1cc(C(F)(F)F)nc(S(=O)(=O)CCCC(=O)Nc2cc(Br)ccc2O)n1,inactive: 41%
6,c1ccc(CNCC2COc3ccccc3O2)cc1 (stereo not drawn),inactive: 102%
7,Cc1cccc(-c2noc(-c3ccc(N4CCCC4)c([N+](=O)[O-])c3)n2)c1,inactive: 81%
8,O=C(NCc1ccco1)C1C2C3CCC(C3)C12 (stereo not drawn),inactive: 100%
9,CCN(C(=O)CN(C)S(=O)(=O)c1ccc2c(c1)n(C)c(=O)c(=O)n2C)c1cccc(C)c1,inactive: 113%
10,COc1ccc(NC(=O)C2CCN(S(=O)(=O)c3c(C)noc3/C=C/c3ccco3)CC2)cc1,inactive: 128%
11,CC(C)OC(=O)c1cc(=O)[nH]c2ccccc12,inactive: 102%
12,CN(C)c1ccc(C(CNS(=O)(=O)c2cc(F)ccc2F)N2CCOCC2)cc1 (stereo not drawn),inactive: 121%
13,Cc1cc(C)c(Cn2c(=O)n(CCCCCC(=O)NCc3ccc4c(c3)OCO4)c(=O)c3sccc32)c(C)c1,inactive: 87%
14,c1ccc2oc(CCc3nc4ccccc4o3)nc2c1,inactive: 112%
15,CCN(CC)C(=O)c1sc(NC(=O)C2c3ccccc3Oc3ccccc32)c(C(=O)OC(C)C)c1C,active: 8%
16,COc1ccc(NS(=O)(=O)c2ccc3[nH]c4c(c3c2)CCCC4)c(OC)c1,inactive: 99%
17,CCOc1ccc(Nc2nc3ccccc3c3nnc(CC)n23)cc1,inactive: 80%
18,COc1cccc(NC(=O)Cn2c(=O)n(-c3cccc(OC)c3)c(=O)c3c4c(sc32)CCCC4)c1,inactive: 89%
19,O=C(O)C1CC(=O)N(c2cccc(Cl)c2)C1 (stereo not drawn),inactive: 113%
20,Cc1ccc(CN(C(=O)c2ccccc2Br)C2CCS(=O)(=O)C2)o1 (stereo not drawn),inactive: 88%

row,SMILES,survival
1,O=C(NCc1ccc(Cl)cc1)C(=O)Nc1cccc(Br)c1,inactive: 150%
2,O=C(Nc1ccc2oc(-c3ccc4ccccc4c3)nc2c1)c1cc(Br)ccc1Cl,inactive: 96%
3,CC1CCC(NC(=O)c2ccc3c(c2)N(Cc2cccc(Cl)c2)C(=O)c2ccccc2S3=O)CC1 (stereo not drawn),inactive: 19%
4,COc1ccc(OCc2nc3ccccc3n2C(C)C)cc1,inactive: 102%
5,Cn1c(=O)c2c(SCC(=O)NCc3ccco3)nc(-c3ccccc3F)nc2n(C)c1=O,inactive: 92%
6,COc1ccc(NC(=O)CC2C(=O)N(c3ccccc3)C(=O)N2Cc2cccnc2)cc1 (stereo not drawn),inactive: 87%
7,CCOc1ccccc1NC(=O)COc1cccc2c(=O)n(CCOC)ccc12,inactive: 79%
8,O=C(O)CNC(=O)c1cncc(O)c1,inactive: 95%
9,Cc1ccc(NC(=O)Nc2cc3c(cc2N2CCCCC2)n(C)c(=O)n3C)cc1Cl,inactive: 131%
10,CCC1CCCCN1S(=O)(=O)c1ccc(N2CCCCS2(=O)=O)cc1 (stereo not drawn),inactive: 83%
11,COc1ccc(-c2[nH]ncc2C(=O)NCc2cccc(F)c2)cc1,inactive: 78%
12,COc1ccc(C2=NN(C(C)=O)C(c3cn(-c4ccccc4)nc3-c3cccs3)C2)cc1 (stereo not drawn),inactive: 127%
13,CC(=O)Nc1c(C(=O)Nc2cccc(C)c2)nnn1-c1ccc(C)cc1,inactive: 103%
14,CCOC(=O)c1ccc(NC(=O)c2c(C)oc3nc(C)nc(N4CCCC4)c23)cc1,inactive: 78%
15,O=C(CCCc1nc(-c2ccco2)no1)Nc1ccccc1[N+](=O)[O-],inactive: 81%
16,COc1cccc(-n2c(=O)c3c4c(sc3n(Cc3ccc(F)cc3Cl)c2=O)CCCC4)c1,inactive: 134%
17,O=C(O)C1CCCCC1C(=O)Nc1cccc(C(=O)N2CCCCC2)c1 (stereo not drawn),inactive: 103%
18,Cc1cc(N2CCN(C)CC2)nc2ccc(NC(=O)Nc3ccccc3)cc12,inactive: 65%
19,O=C(CNS(=O)(=O)c1ccccc1)Nc1ccc2c(c1)OCO2,inactive: 117%
20,CCc1ccc(NC(=O)CC(c2ccc(C)cc2)N2Cc3ccccc3C2=O)cc1 (stereo not drawn),inactive: 121%

row,SMILES,survival
1,O=C1C2CCCN2C(=S)N1C1CCCCC1 (stereo not drawn),inactive: 101%
2,COCCNC(=O)c1ccc2nc(CCc3ccccc3)oc2c1,inactive: 118%
3,Cc1ccc(-n2nc(-c3ccc(F)cc3)c3cnc4cc5c(cc4c32)OCO5)cc1C,inactive: 81%
4,CCc1ccc(-c2cc(C)no2)cc1S(=O)(=O)N1CCN(c2cccc(Cl)c2)CC1,inactive: 72%
5,Cc1c(C(=O)Nc2ccc(Br)cc2F)oc2ccc(S(=O)(=O)N3CCC4(CC3)OCCO4)cc12,inactive: 71%
6,COc1ccc(NC(=O)c2oc3ccc(S(=O)(=O)N(C)C4CCCCC4)cc3c2C)cc1Cl,inactive: 68%
7,O=C(CCC1CCCCC1)Nc1ncn[nH]1,inactive: 114%
8,Cc1ccc(Cl)cc1N1CCN(C(=O)CCSCc2ccccc2F)CC1,inactive: 85%
9,Cc1ccc(CCNC(=O)c2sc3ncccc3c2-n2c(C)ccc2C)cc1,inactive: 75%
10,CC1CCCCN1c1c(S(=O)(=O)c2ccc(Cl)cc2)cnc2ccccc12 (stereo not drawn),active: 3%
11,CCC(=O)Nc1ccc(CC)cc1-c1nc2ccccc2n(CC(=O)Nc2cccc(OC)c2)c1=O,inactive: 69%
12,COC(CN(C)S(=O)(=O)c1ccc(Br)cc1)OC,inactive: 102%
13,Cc1cc(C)cc(-n2ccnc(NCCc3ccccc3)c2=O)c1,inactive: 75%
14,COc1ccc(OC)c(N(CC(=O)N2CCN(c3ccccc3F)CC2)S(C)(=O)=O)c1,inactive: 89%
15,COc1ccc(-c2nc(CS(=O)CC(=O)NCCc3ccccc3)c(C)o2)cc1OC (stereo not drawn),inactive: 88%
16,CCOC(=O)c1cc2c(=O)n3ccccc3nc2n(CC(C)C)c1=NC(=O)COc1ccc(Cl)cc1,inactive: 115%
17,COc1ccc(C(=O)Nc2ccc3nc4c(c(Nc5ccc(OC)c(OC)c5)c3c2)CCCC4)c(OC)c1,inactive: 76%
18,Cc1ccc2oc(C(=O)Nc3ccc(S(=O)(=O)N4CCCC(C)C4)cc3)cc(=O)c2c1 (stereo not drawn),inactive: 82%
